# Measurements published in PubChem BioAssay AID493208 (National Center for Advancing Translational Sciences (NCATS), 2011).
# The whole screen tested about 44,000 compounds, of which about 340 (0.77%) were called active. Roughly 5% stayed inconclusive and do not appear here. Calls follow the shape of the dose curve; as a rule, active = well fitted inhibition curve with a large enough effect; inconclusive = small, poorly fitted or top-dose-only effect; inactive = flat fitted curve, though single readings scatter. The list shows a part of the results.
# Experiment: Acumen qHTS Assay for Inhibitors of the mTORC1 Signaling Pathway in MEF (Tsc2-/-, p53-/-) Cells: Sytravon; also: nearly all actives have a fitted effect of over 50% in size
# Settings: phospho-rpS6 immunofluorescence/PI, 24 h; series mostly up to 38.3 µM; activity change, negative = inhibition: at the top concentration
# From the text: NIH Molecular Libraries Probe Production Centers Network [MLPCN] NIH Chemical Genomics Center [NCGC] MLPCN Grant: NS059428-01 Assay Submitter (PI): Blenis, John; Hoffman, Greg; Harvard University NCGC Assay Overview: The mammalian target of rapamycin (mTOR) is an intracellular serine/threonine kinase Aberrant regulation of mTOR signaling plays a causative role in a number of human diseases, including cancer, benign tumors such as lymphangioleiomyomatosis (LAM) and Tuberous Sclerosis Complex (TSC), and metabolic diseases such as diabetes and obesity. This project aims to identify inhibitors of ribosomal protein S6 (rpS6) phosphorylation. The phosphorylation of rpS6 is a key event downstream of mTOR activation. The assay uses a phospho-specific antibody of phospho-rpS6 to detect inhibitors of mTOR activation. Mutations in the Tsc1 and Tsc2 genes are the underlying genetic lesions responsible for TSC, causing constitutive activation of the mTORC1 pathway and leading to profound effects on cell metabolism. Aberrant metabolism in cancer has recently received significant attention as a target to develop therapeutic agents in the treatment of cancer.1 As Tsc2-/- cells have lost the ability to respond to energy and growth factor deprivation, these cells are unable to properly down regulate cellular biosynthetic processes in response to metabolic stress, and are thus extremely sensitive to glucose deprivation-induced death.2 A central goal of this project is to explore the unique cell survival and metabolic properties of cells with Tsc1 or Tsc2 by screening for compounds that selectively target the Tsc2-/- MEFs by screening both Tsc2-/- and WT MEF cell lines. We hope to better understand these aspects of TSC physiology in order to exploit them for therapeutic benefit.
# NCGC Acumen Assay Protocol Summary: For quantitative high throughput analysis of mTORC1 signaling, we developed a cell-based assay for immuno-fluorescence based detection of rpS6 phosphorylation on the Acumen Explorer that will be used a platform for the primary small molecule screen. Mouse embryonic fibroblasts (MEFs) are cultured in 1536-well plates using DMEM + 10% FBS. Twenty-four hrs after plating, test compounds (solubilized in DMSO) are delivered and incubated with the cells for 24 hrs at 37 degree Celsius. Following the incubation, media with compound is aspirated and the cells are fixed in 4% paraformaldehyde (PFA) containing PBS + 0.2% TX-100. Next, PFA is aspirated, cells are washed two times with PBS plus 0.2% TX-100 and the cells are blocked for 1 hr at room temperature (blocking buffer: LiCOR Blocking Buffer plus 0.2% TX-100). […] Cells are washed two times with PBS plus 0.2% TX-100, and stained with 10 uM propidium iodide (PI) for 20-25 minutes for cell number measurement (1:500 dilution of Hoescht staining is also added for IN Cell imaging). The plates are scanned on the Acumen Explorer laser scanning instrument (TTP Labtech) using the 488nm laser for simultaneous excitation of the Alexa-488 and PI. […] The normalized phospho-S6 staining is calculated as the ratio of the integrated Alexa 488 intensity divided by the integrated PI intensity for the single concentration rapamycin control (7.5 nM) and DMSO columns. […] Inhibition of the pathway is defined based on the normalized phospho-S6 intensity in rapamycin treated cells. Active cells are defined as those with a normalized phospho-S6 staining above this threshold, and each treatment is reported as the % positive cells in the well, where thresholds are defined by selecting wells with the highest and lowest signal and differentiating between the % non-active and % active populations. In addition to the pathway specific phospho-S6 endpoint, the number of PI stained cells from the Acumen is recorded as a measure of cell viability. The primary screen was performed with a MEF cell line in a defined genetic background, Tsc2-/-, p53-/- cell line stably transfected with an empty vector control (Tsc2-/- MEF).
# Potency is read from the fitted curve at half-maximal effect.
SMILES,"activity change, negative = inhibition",Potency
Cc1c(Cl)cccc1NC(=O)Cn1c(=O)n(Cc2ccco2)c(=O)c2oc3ccccc3c21,inactive: 1.75%,
O=C1CC(c2ccc(Br)cc2)c2c(ccc3ccccc23)N1 (centres undefined),inactive: -0.179%,
Cc1ccc(CN2CCC(CNC(=O)Nc3cccc(C)c3C)C2)cc1 (centres undefined),inactive: -13.7%,
CCc1nc2nc(C)cc(Nc3ccc(F)c(Cl)c3)n2n1,inactive: 6.35%,
COc1cc(OC)c2c(C)c(CC(=O)N3CCCCC3)c(=O)oc2c1,inactive: -11%,
Cc1cccc(C(=O)Nc2ccccc2OCc2cc(=O)n3cc(C)ccc3n2)c1,inactive: 8.56%,
CC(=O)N1CCCc2cc(S(=O)(=O)N3CCCC(C(=O)Nc4ccc(C)c(F)c4)C3)ccc21 (centres undefined),inactive: -3.66%,
COc1ccccc1-c1c(C)nn2c(N3CCN(c4ccc(F)cc4)CC3)cc(C)nc12,inactive: -1.97%,
CCN(CC)CCCNc1oc(-c2ccc(OC)cc2)nc1C#N,inactive: -4.48%,
CC(C)n1c(=O)c2oc3ccccc3c2n(CC(=O)Nc2ccccc2Cl)c1=O,inactive: -7.73%,
CCOC(=O)c1ccccc1NC(=O)c1c(C)oc2ncnc(N3CCOCC3)c12,inactive: 0.688%,
COc1cccc(-n2c(=O)c3c(C)c(C)sc3n(Cc3ccccc3C#N)c2=O)c1,inactive: -1.22%,
CCOc1ccc(CNC(=O)c2cc3ccccn3n2)cc1,inactive: -13.7%,
COc1ccc(-c2nc3sc(CCNC(=O)C(=O)Nc4ccccc4C#N)c(C)n3n2)cc1,inactive: -1.05%,
COCCCNC(=O)c1ccc(Cn2c(=O)c3ccccc3n(Cc3ccc(Cl)cc3)c2=O)cc1,inactive: 6.39%,
Cc1cccc(-n2c(SCC(=O)Nc3ccc(C)c(C)c3)nc3n[nH]c(C)c3c2=N)c1,inactive: -15.9%,
COc1cccc(-c2nn(C)c3sc(C(=O)NCc4ccc(OC)cc4OC)cc23)c1,inactive: -7.65%,
COc1ccc(CC(=O)NCC(c2cccs2)S(=O)(=O)c2ccc(F)cc2)cc1 (centres undefined),inactive: 0.33%,
O=C(CN1CCN(Cc2ccccc2F)C1=O)NCc1ccccc1,inactive: -18.2%,
Cc1ccc(C(=O)N(Cc2ccco2)c2ccccn2)cc1,inactive: -14.3%,
CCOc1ccccc1NC(=O)C1=C(C)Nc2ncnn2C1c1ccco1 (centres undefined),inactive: -2.98%,
COc1cc(NC(=O)c2nn(C)c3c2COc2ccccc2-3)cc(OC)c1OC,inactive: 1.46%,
COc1ccc(CCNC(=O)c2ccc(Cn3c(SCc4ccccc4)nc4cccnc43)cc2)cc1,inactive: 0.0449%,
CC(C)c1cc(-c2nc(-c3ccc(Cl)cc3)no2)n[nH]1,inactive: 3.16%,
CCc1cnc2c(c1SC(C(C)=O)C(=O)N(C)C)c(=O)n(C)c(=O)n2C (centres undefined),inactive: -2.55%,

SMILES,"activity change, negative = inhibition",Potency
CC(C)c1ccc(NC(=O)c2ccc(CN3CC(=O)N4CCCCC4C3=O)cc2)cc1 (centres undefined),inactive: -18.8%,
CCc1ccc(C2CC(=O)Nc3c2c(=O)nc2c(C)cccn32)cc1 (centres undefined),inactive: 1.01%,
Cc1cccc(NC(=O)Cn2c(=O)n(Cc3ccccc3)c(=O)c3oc4ccccc4c32)c1C,inactive: 3.52%,
Cc1ccc(CNC(=O)c2c(Nc3c(C)cccc3C)sc(C(=O)c3ccccc3)c2N)cc1,inactive: -3.09%,
CCOc1ccc(C2C(C(N)=O)=C(C)Nc3nc(SCc4ccccc4F)nn32)cc1 (centres undefined),inactive: -2.94%,
COc1ccccc1C(=O)Nc1ccc(C(=O)OCc2cc(=O)n3c4c(sc3n2)CCCC4)cc1,inactive: 0%,
COc1ccccc1NC(=O)c1cnn(-c2ccccc2)c1-n1cccc1,inactive: -4.54%,
CN(C)c1ccc(CNC(=O)c2ccc3nc(Cc4ccccc4)oc3c2)cc1,inactive: 0.35%,
CSc1ccc(CCNC(=O)c2csc3c2CCCCC3)cc1,inactive: 2.17%,
O=C(O)CCn1ccc2cc(S(=O)(=O)N3CCCCCC3)ccc21,inactive: -0.279%,
Cc1cc(C)c(NC(=O)C(=O)NCCc2csc(-c3ccc(F)cc3)n2)c(C)c1,inactive: -12%,
Cc1cccn2c(=O)c(C(=O)N3CCN(c4ccccc4)CC3)cnc12,inactive: 0.452%,
COc1cc(Nc2nc(-c3ccc(OC)c(OC)c3)nc3ccccc23)cc(OC)c1,,active: 16.5 µM
Cc1ccc(C(=O)c2c(N)c(C(=O)Nc3cccc(C(F)(F)F)c3)c3ccccn23)cc1,inactive: -5.96%,
Cc1ccc(-n2c(=O)c3oc4ccccc4c3n(Cc3cccc(F)c3)c2=O)cc1C,inactive: -1.14%,
COc1ccccc1Nc1c2c(nc3ccc(NC(=O)c4ccc(N(C)C)cc4)cc13)CCCC2,,active: 5.21 µM
CCCCOc1ccc(C(=O)Nc2cccc(-c3nc4ccccc4o3)c2C)cc1,inactive: 4.85%,
Cc1nc2nc(NCc3ccc(Br)cc3)[nH]n2c(=O)c1Cc1ccccc1,inactive: -6.44%,
CCCCC(CC)CNC(=O)CCCCCn1c(=O)[nH]c2ccsc2c1=O (centres undefined),inactive: -0.733%,
O=C(c1ccc2c(c1)N(Cc1ccc(Cl)cc1)C(=O)c1ccccc1S2(=O)=O)N1CCOCC1,inactive: 4.05%,
CCCC(=O)Nc1ccc2oc(-c3ccc(O)c(Br)c3)nc2c1,inactive: -20.9%,
CC(C)c1ccc(NC(=O)c2ccc(=O)n(Cc3ccccc3)c2)cc1,inactive: -10.2%,
CCc1ccc(-n2c(=O)c3ccccc3n(Cc3ccccc3C#N)c2=O)cc1,inactive: -2.69%,
COc1cccc(C2C(C(N)=O)=C(C)Nc3ncnn32)c1 (centres undefined),inactive: -1.84%,
